Data reported in PubChem BioAssay AID588342 (National Center for Advancing Translational Sciences (NCATS), 2011).
About 25,000 (6.9%) of roughly 360,000 compounds were called active. The inconclusive results got no clear call from the source; some entries with a clear call stand among them for comparison. Calls come from the whole dose curve; as a rule, active = well fitted inhibition curve with a large enough effect; inconclusive = small, poorly fitted or top-dose-only effect; inactive = flat fitted curve, though single readings scatter. A potency beside an inconclusive call is a rough fit, not a confirmed value.

What follows are compounds tested against Luciferin 4-monooxygenase (Photinus pyralis) (UniProt P08659) (assay: qHTS profiling assay for firefly luciferase inhibitor/activator using purifed enzyme and Km concentrations of substrates (counterscreen for miR-21 project)). Conditions: purified FLuc, luminescence inhibition; series mostly up to 57.5 µM.
Method in brief: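 Biochemical qHTS of compounds, final roughly 60 µM downward over six points, against 10 nM purified firefly luciferase using Km concentrations of substrates (10 uM D-luciferin, 10 uM ATP) in Tris acetate pH 7.5 buffer; luminescence output.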
Note: nearly all actives have a fitted effect of over 55% in size.
Potency is the fitted concentration of half-maximal effect; tags give direction and shape of the fitted curve.

Sequence of UniProt P08659 (P08659 whole entry, looked up): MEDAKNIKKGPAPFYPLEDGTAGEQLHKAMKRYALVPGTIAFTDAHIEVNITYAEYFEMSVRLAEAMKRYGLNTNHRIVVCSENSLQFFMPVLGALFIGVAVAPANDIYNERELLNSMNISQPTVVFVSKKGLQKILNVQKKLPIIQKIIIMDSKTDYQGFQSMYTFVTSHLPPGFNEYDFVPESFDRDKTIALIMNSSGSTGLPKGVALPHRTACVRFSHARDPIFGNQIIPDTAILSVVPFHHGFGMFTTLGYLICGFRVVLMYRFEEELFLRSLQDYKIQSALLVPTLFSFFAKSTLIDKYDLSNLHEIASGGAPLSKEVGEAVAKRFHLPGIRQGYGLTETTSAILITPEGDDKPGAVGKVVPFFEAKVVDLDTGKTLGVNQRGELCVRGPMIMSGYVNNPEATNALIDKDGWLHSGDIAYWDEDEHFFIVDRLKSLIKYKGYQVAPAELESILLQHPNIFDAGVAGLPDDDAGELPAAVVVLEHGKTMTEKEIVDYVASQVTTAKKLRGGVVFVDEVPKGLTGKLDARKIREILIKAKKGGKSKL

Compound | Potency
COc1ccc(C)cc1NC(=O)c1cccc(-c2ccc(OC(C)=O)cc2)c1 | inconclusive: 30.1 µM [inhibitor, single point]
CCOC(=O)c1ccc(NC(=O)c2c(C)[nH]c(C(=O)OCC)c2C)cc1 | inactive
COc1cccc(CN(C)C(=O)CNC(=O)c2ccc3c(c2)OCO3)c1OC | inactive
C=CCN1C(=O)/C(=C/c2ccc(OC(C)=O)c(OCC)c2[N+](=O)[O-])SC1=S | inconclusive: 23.9 µM [inhibitor, single point]
COc1ccc(-c2csc(CCn3nc(C)cc3C)n2)cc1 | inconclusive: 37.9 µM [inhibitor, partial curve, poor fit]
O=C(N/N=C1\CC(c2ccccc2)Oc2ccccc21)c1ccc(O)cc1 (stereo not drawn) | inconclusive: 26.9 µM [inhibitor, partial curve]
COc1cccc(NC(=O)CN(C)C(=O)CCSc2ccc(C)cc2)c1 | inconclusive: 21.3 µM [inhibitor, partial curve, poor fit]
CCOc1ccc(-c2nnc(NC(=O)C3CCCC3)o2)cc1 | inconclusive: 23.9 µM [inhibitor, partial curve]
COCCN1C(=O)/C(=C/c2cc3c(cc2Br)OCO3)NC1=S | inconclusive: 21.3 µM [inhibitor, partial curve, poor fit]
CCOc1ccc(/C=C2\SC(=S)N(NS(=O)(=O)c3ccc(C)cc3)C2=O)cc1OC | inconclusive: 23.9 µM [inhibitor, single point]
CCc1c(C)c2ccc(O)c(CN3CCN(c4ccc(OC)cc4)CC3)c2oc1=O | inconclusive: 7.57 µM [inhibitor, full curve]
Cc1ccccc1[C@@H]1C(C#N)=C(N)S[C@H]1C(=O)c1ccccc1 | inconclusive: 37.9 µM [inhibitor, partial curve, poor fit]
Clc1ccc(CSc2cc3c(nn2)-c2ccccc2CC3)cc1 | active: 12 µM
Cc1cc(-c2nsc(=O)o2)c(S(C)(=O)=O)s1 | inconclusive: 21.3 µM [inhibitor, partial curve, poor fit]
Cc1c(C(=O)N2CCCC2)sc(NC(=O)c2cccs2)c1C#N | inconclusive: 16.9 µM [inhibitor, partial curve]
Cc1ccc(NC(=S)NCC(C)C)cc1 | active: 19 µM
Cc1ccc(NC(=O)Cc2ccsc2)cc1Cl | inconclusive: 23.9 µM [inhibitor, single point]
CCOC(=O)N1CCN(C(=O)c2ccc3oc(CCCc4ccccc4)nc3c2)CC1 | active: 6.01 µM
Cc1cc(C)n(CC(=O)N/N=C/c2c[nH]c3ccccc23)n1 | inconclusive: 37.9 µM [inhibitor, partial curve, poor fit]
CCc1ccc(-n2nc(C)c3c(C(=O)Nc4cc(C)c(Cl)cc4OC)cc(C)nc32)cc1 | inactive
CCC1(C)Cc2sc3c(=O)[nH]c(=S)[nH]c3c2CO1 (stereo not drawn) | inconclusive: 26.9 µM [inhibitor, partial curve]
CCCC/C(C)=N/NC(=O)c1cn(-c2ccccc2)nc1-c1ccccc1 | inconclusive: 23.9 µM [inhibitor, partial curve, poor fit]
COC(=O)c1ccc(COc2cccc(C)c2C)cc1 | inconclusive: 23.9 µM [inhibitor, partial curve]
O=C(Nc1ccc(C(F)(F)F)cc1)C1CCN(c2cnccn2)CC1 | inactive
Cc1ccc(CCNC(=O)c2cc(C)nc3c2c(C)nn3-c2ccc(C)cc2)cc1 | inactive

Compound | Potency
S=C(NCCc1ccccc1)Nc1ccccc1 | inconclusive: 26.9 µM [inhibitor, partial curve]
CCCc1cc(NCC2CCCO2)n2c(nc3ccccc32)c1C#N (stereo not drawn) | active: 16.9 µM
COc1ccccc1/C=C/C(=O)OCC(=O)N1CCc2ccccc21 | inconclusive: 37.9 µM [inhibitor, partial curve, poor fit]
O=C(Cc1ccc(Br)cc1)Nc1nc2ccccc2[nH]1 | inactive
COc1ccc(-c2csc(Nc3ccc(C)cn3)n2)cc1OC | active: 16.9 µM
COc1cc(C(=S)N2CCN(c3cccc(Cl)c3)CC2)ccc1O | inconclusive: 30.1 µM [inhibitor, partial curve, poor fit]
CC1=NC(=O)C(N=Nc2cccc(O)c2)N1c1ccccc1 (stereo not drawn) | active: 6.75 µM
Clc1ccc(OCc2nnc3n2CCCCC3)c(Cl)c1 | inactive
CSc1ccc(CCNC(=O)c2ccc(CS(=O)Cc3ccccc3Cl)o2)cc1 (stereo not drawn) | inconclusive: 37.9 µM [inhibitor, single point]
CC(C)Oc1ccc(C(CC(=O)O)NC(=O)C(Sc2ccccc2)c2ccccc2)cc1 (stereo not drawn) | inconclusive: 13.5 µM [inhibitor, partial curve]
CCN(CC)S(=O)(=O)c1ccc(NC(=S)NC(=O)CC(C)C)cc1 | inactive
Cc1ccccc1C(=O)OCc1cc(=O)n2c(C)csc2n1 | inconclusive: 26.9 µM [inhibitor, partial curve]
Oc1c(Br)cc(C2N=C(c3ccccc3Cl)NO2)cc1Br (stereo not drawn) | inconclusive: 37.9 µM [inhibitor, single point]
CC1(c2nnc(-c3cccc(Cl)c3)o2)CC(c2ccccc2Br)=NO1 (stereo not drawn) | inactive
C=CCN=c1scc(-c2ccccc2)n1/N=C/c1ccccn1 | active: 2.39 µM
Cc1cc(C(=O)Nc2cccc(F)c2)c2c(C)nn(-c3cccc(Cl)c3C)c2n1 | inactive
O=C(COc1ncnc2ccccc12)Nc1ccc(Cl)c(S(=O)(=O)N2CCOCC2)c1 | inactive
CSc1ccc(CCNC(=O)c2ccc3c(c2)nc2n3CCCCC2)cc1 | active: 23.9 µM
Cc1ccc(C(=O)Nc2nc(N)n(-c3ccccc3)n2)cc1 | active: 23.9 µM
CC(CCc1ccccc1)NC(=O)Cn1c(=O)nc(-c2ccccc2F)c2cc(Cl)ccc21 (stereo not drawn) | inactive
CN1c2ccccc2-c2nc3ccccc3n2C1c1cccs1 (stereo not drawn) | inconclusive: 26.9 µM [inhibitor, single point]
O=C(COc1ccc(F)cc1)N1CCC(c2ccccc2)C1 (stereo not drawn) | active: 19 µM
O=c1cc(-c2ccccc2)nc2n1Cc1ccccc1-2 | inconclusive: 37.9 µM [inhibitor, partial curve, poor fit]
O=C(Nc1ccc(Br)c2ccccc12)c1ccc2ccccc2c1O | inconclusive: 26.9 µM [inhibitor, single point]
COc1cccc(/C=C2\CCc3ccccc3C2=O)c1 | active: 0.151 µM

Compound | Potency
CCCOc1ccc(C(=O)CCC(=O)OCC(=O)N(C)c2c(N)n(Cc3ccccc3)c(=O)[nH]c2=O)cc1 | inconclusive: 15.1 µM [inhibitor, partial curve]
COc1ccc(OC)c(S(=O)(=O)NCc2cc(-c3ccccc3)no2)c1 | inactive
CCCc1nc2scc(-c3ccc(C)cc3)c2c(=O)n1N | inconclusive: 26.9 µM [inhibitor, partial curve, poor fit]
CCOC(=O)c1c(C)oc2c1c(C=NCc1ccccn1)c(O)c1ccccc12 | inconclusive: 23.9 µM [inhibitor, single point]
CON1C(=O)CN(C(C)=O)C1c1ccc(Cl)cc1Cl (stereo not drawn) | inconclusive: 8.49 µM [inhibitor, partial curve, poor fit]
O=C(Nc1nc(-c2ccccn2)cs1)c1ccc(-c2ccccc2F)o1 | inconclusive: 37.9 µM [inhibitor, single point]
N/C(=N\OC(=O)c1ccco1)c1ccccn1 | active: 8.49 µM
c1ccc(C2CCCN(Cc3nc(CC4CC4)no3)CC2)cc1 (stereo not drawn) | active: 23.9 µM
Cc1cc(COc2ccccc2)oc1C(=O)O | inconclusive: 7.57 µM [inhibitor, partial curve, poor fit]
CCN(CC)c1ccc(/C=N/NC(=O)c2cccc(S(=O)(=O)Nc3ccccc3OC)c2)c(O)c1 | inactive
COc1ccccc1NC(=O)c1cc(-c2ccc(OC)c(OC)c2)nc2ccccc12 | active: 9.53 µM
O=C(CCN1C(=O)S/C(=C\c2cccs2)C1=O)NC1=NCCS1 | inconclusive: 5.36 µM [inhibitor, partial curve, poor fit]
Cc1ccc(N2CC(c3nnc(Cc4ccc(F)cc4)o3)CC2=O)cc1 (stereo not drawn) | inactive
COc1cc(/C=C(/C(=O)c2cccs2)c2nc3ccccc3[nH]2)cc(OC)c1O | active: 2.39 µM
CN(C)S(=O)(=O)c1ccc(C(=O)OCC(=O)c2csc(N3CCCCC3)n2)cc1 | inconclusive: 23.9 µM [inhibitor, single point]
Oc1c(C(c2ccccc2)N2CCN(c3cccc(Cl)c3)CC2)sc2nc(-c3ccco3)nn12 (stereo not drawn) | inconclusive: 16.9 µM [inhibitor, partial curve]
O=c1c2ccccc2nc(-c2ccc(Br)cc2)n1Cc1ccccc1 | inactive
O=C(NC1=NN(c2ccccc2)CC1)Nc1ccccc1F | inconclusive: 26.9 µM [inhibitor, partial curve, poor fit]
CCN1C(=O)/C(=C/c2cnn(CC)c2C)SC1=S | inconclusive: 8.49 µM [inhibitor, partial curve]
C/C(=N\NC(=O)c1cc(O)ccc1O)c1cccc(NC(=O)c2ccc(Cl)cc2)c1 | active: 1.07 µM
Cc1nnc(SCC(=O)NNC(=O)c2ccc(Br)cc2)n1C | inconclusive: 23.9 µM [inhibitor, single point]
COc1ccc(C(=O)O/N=C(\C)c2ccccc2)cc1 | active: 0.675 µM
O=C(Cn1cnc2c(nnn2Cc2ccccc2)c1=O)Nc1ccc2c(c1)OCCO2 | inactive
